Tests used:
[1] = system: fol3Δ::KanMX met13Δ::KanMX cells; assay: Yeast growth complementation assay: human MTHFR variants in media lacking methionine with varying folinic acid; conditions: for functional impact and folate responsiveness (growth in absence of methionine): over the range of folinic acid concentrations tested
Experimental: (§1) FIG. 1. Effects of folinic acid supplementation on growth rate of fol3Δ::KanMX cells and cellular activity of human MTHFR. (a) Growth of fol3Δ::KanMX MET13 haploid yeast was measured in 96-well plates as described in Materials and Methods. Media was supplemented with folinic acid at the indicated concentrations. The curve labeled FOL3 (FOL3 MET13) was from growth in medium without folinic acid. (b) Growth of fol3Δ::KanMX met13Δ::KanMX haploid yeast transformed with phMTHFR in media lacking methionine and supplemented with folinic acid at the indicated concentrations. 3 independent transformants were tested at each folinic acid concentration to test reproducibility. The curve labeled met13Δ represented a single isolate of cells, transformed with empty vector, grown at 50 μg/ml folinic acid.
FIG. 2. Functional impact and folate-remediability of nonsynonymous MTHFR population variants. (a) 6 MTHFR variants were tested for the ability to rescue fol3Δ::KanMX met13Δ::KanMX cells in media lacking methionine at 3 different folinic acid concentrations. […] The curve labeled Major corresponds to the most common MTHFR allele in the population. Each curve is from a pool of 3-6 independent transformants. (b) Schematic of the MTHFR protein (656 amino acids) divided into a N-terminal catalytic domain and a C-terminal regulatory domain of nearly equal size (35). Positions of all nonsynonymous changes are indicated. Benign changes are in green. Changes numbered 1 through 4 represent folate-remedial alleles indicated in increasing order of severity.
Growth Conditions. Synthetic growth media lacking folate was minimal media (Sherman, 2002, Genetics & Molecular Biol., eds. Guthrie and Fink (Academic, New York), pp. 3-41) with Yeast Nitrogen Base without Vitamins (Obiogene), and all vitamins except folate added back individually. All fol3Δ::KanMX cells were supplemented with 50 μg/ml folinic acid (Sigma). For kinetic growth measurements, fol3Δ::KanMX met13Δ::KanMX cells were transformed with GAL1 promoter-driven MTHFR variants and grown to log phase in synthetic galactose medium (2% galactose, 0.1% glucose) supplemented with folinic acid (50 μg/ml) and methionine (20 μg/ml). Cells were washed 3 times and aliquoted into 96-well plates containing fresh galactose media with varying amounts of folinic acid, but lacking methionine. The volume per well was 200 μl with a starting cell density of OD595=0.01. Absorbance was tracked every 15-30 minutes for at least 60 hours in a Tecan GENios plate reader at 30° C. with no shaking. MET13 cells used in FIG. 1a were treated the same way except that all growth was in the absence of methionine.
MTHFR-folate interaction in vivo. […] Folate auxotrophy (fol3) was introduced into a met13 strain, allowing titration of intracellular folate concentrations by varying folinic acid in the growth media. Folinic acid (5-formyl-tetrahydrofolate) can be metabolized in yeast to methenyl-tetrahydrofolate, which in turn can be converted to other folate coenzymes (Cherest et al. (2000) J. Biol. Chem. 275:14056-63). In this way, human MTHFR functionality (growth in the absence of methionine) was measured as a function of increasingly limiting cellular folate status.

[2] = system: fol3Δ::KanMX MET13 haploid yeast; assay: Growth of folate-auxotroph yeast as a function of folinic acid supplementation
Experimental: as §1
Growth Conditions. Synthetic growth media lacking folate was minimal media (Sherman, 2002, Genetics & Molecular Biol., eds. Guthrie and Fink (Academic, New York), pp. 3-41) with Yeast Nitrogen Base without Vitamins (Obiogene), and all vitamins except folate added back individually. All fol3Δ::KanMX cells were supplemented with 50 μg/ml folinic acid (Sigma). […] Absorbance was tracked every 15-30 minutes for at least 60 hours in a Tecan GENios plate reader at 30° C. with no shaking. […]

[3] = system: cys4 sno1Δ sno2Δ sno3Δ snz1Δ snz2Δ snz3Δ yeast; assay: Yeast complementation growth assay for CBS as a function of pyridoxine (vitamin B6); conditions: pyridoxine supplementation varied
Experimental: Yeast strains were engineered to assay CTH and CBS as a function of intracellular vitamin B6 (pyridoxine) concentration (FIG. 6). The S. cerevisiae orthologs for CTH and CBS are cys3 and cys4, respectively, whose defect results in cysteine auxotrophy. Enzymes were tested as a function of pyridoxine concentration in a manner similar to that described herein for MTHFR except that the strain background is defective for pyridoxine biosynthesis (sextuple-delete sno1Δ sno2Δ sno3Δ snz1Δ snz2Δ snz3Δ; Stolz et al., 2003. Tpn1p, the plasma membrane vitamin B6 transporter of Saccharomyces cerevisiae. J Biol Chem 278:18990-18996) as well as either a cys3 or cys4 defect.

“R519C: human MTHFR variant, regulatory domain” was tested, and the “functional impact and folate responsiveness (growth in absence of methionine)” value [1] was “benign”.

“R594Q: common human MTHFR variant, regulatory domain” was tested, and the “functional impact and folate responsiveness (growth in absence of methionine)” value [1] was “benign”.

With “A222V: human MTHFR variant, common polymorphism, catalytic domain” the “reduction in growth rate” value ([1]; 50 p g/ml folate supplementation) was 50% and the “functional impact and folate responsiveness (growth in absence of methionine)” value [1] was “folate-remedial behavior”.

For `Nc1nc2c(c(=O)[nH]1)N(C=O)C(CNc1ccc(C(=O)N[C@@H](CCC(=O)O)C(=O)O)cc1)CN2` (some centres unmarked) [folinic acid, 5-formyl-tetrahydrofolate], the “effect of folinic acid supplementation on growth” value ([2]; folinic acid above 50 μg/ml) was “did not confer any significant growth advantage”, the “effect of folinic acid supplementation on growth” value ([2]; folinic acid below 50 μg/ml) was “growth clearly correlated with available folinic acid in the medium” and the “effect of folinic acid supplementation on growth of cells expressing the major human allele” value ([1]; folinic acid above 50 p g/ml) was “did not confer a significant growth advantage”.

B1: 1278T: homocystinuric allele of human CBS (protein, UniProt P35520 1-551, looked up, variant I278T)
Cystathionine beta-synthase: MPSETPQAEVGPTGCPHRSGPHSAKGSLEKGSPEDKEAKEPLWIRPDAPSRCTWQLGRPASESPHHHTAPAKSPKILPDILKKIGDTPMVRINKIGKKFGLKCELLAKCEFFNAGGSVKDRISLRMIEDAERDGTLKPGDTIIEPTSGNTGIGLALAAAVRGYRCIIVMPEKMSSEKVDVLRALGAEIVRTPTNARFDSPESHVGVAWRLKNEIPNSHILDQYRNASNPLAHYDTTADEILQQCDGKLDMLVASVGTGGTITGIARKLKEKCPGCRITGVDPEGSILAEPEELNQTEQTTYEVEGIGYDFIPTVLDRTVVDKWFKSNDEEAFTFARMLIAQEGLLCGGSAGSTVAVAVKAAQELQEGQRCVVILPDSVRNYMTKFLSDRWMLQKGFLKEEDLTEKKPWWWHLRVQELGLSAPLTVLPTITCGHTIEILREKGFDQAPVVDEAGVILGMVTLGNMLSSLLAGKVQPSDQVGKVIYKQFKQIRLTDTLGRLSHILEMDHFALVVHEQIQYHSTGKSSQRQMVFGVVTAIDLLNFVAAQERDQK
In the case of B1, the “sensitivity to limiting B6 levels (growth on solid media)” value [3] is reported as “more sensitive than the wild-type enzyme to limiting B6 levels”.

Source: patent publication US20090281061A1, “Impaired Alleles of Genes Involved in Metabolic Pathways and Methods for Detecting and Using the Same” (The Regents of the University of California, priority 2008, published 2009)
